Test results published in the supplement of paper PMC3334620.
Whole data set: some 33,000 sequences, median “E-score (-0.5 to 0.5)” near -0.053, cut for the highest 2% near 0.37. Some of the results follow.

Target: Hap1 (UniProt P0CE41)
Experiment: PBM E-score (8-mer binding enrichment) (E-score (-0.5 to 0.5)); higher = stronger / more preferred TF binding; most listed sequences are background and not binding sites
Conditions: protein concentration: 200 nM; construct: GST-DNA-binding domain
Summary of the method: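 Universal all-10-mer Agilent arrays, double-stranded by primer extension on fresh or once-stripped slides, were probed with about 100-200 nM GST-tagged yeast transcription factors made by PURExpress. Fluorescent anti-GST detected bound protein, and masliner normalised the scans. E-scores from the Universal PBM Analysis Suite were given to each ungapped eight-base word pooled with its reverse complement.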

Chain of UniProt P0CE41 (P0CE41 whole entry): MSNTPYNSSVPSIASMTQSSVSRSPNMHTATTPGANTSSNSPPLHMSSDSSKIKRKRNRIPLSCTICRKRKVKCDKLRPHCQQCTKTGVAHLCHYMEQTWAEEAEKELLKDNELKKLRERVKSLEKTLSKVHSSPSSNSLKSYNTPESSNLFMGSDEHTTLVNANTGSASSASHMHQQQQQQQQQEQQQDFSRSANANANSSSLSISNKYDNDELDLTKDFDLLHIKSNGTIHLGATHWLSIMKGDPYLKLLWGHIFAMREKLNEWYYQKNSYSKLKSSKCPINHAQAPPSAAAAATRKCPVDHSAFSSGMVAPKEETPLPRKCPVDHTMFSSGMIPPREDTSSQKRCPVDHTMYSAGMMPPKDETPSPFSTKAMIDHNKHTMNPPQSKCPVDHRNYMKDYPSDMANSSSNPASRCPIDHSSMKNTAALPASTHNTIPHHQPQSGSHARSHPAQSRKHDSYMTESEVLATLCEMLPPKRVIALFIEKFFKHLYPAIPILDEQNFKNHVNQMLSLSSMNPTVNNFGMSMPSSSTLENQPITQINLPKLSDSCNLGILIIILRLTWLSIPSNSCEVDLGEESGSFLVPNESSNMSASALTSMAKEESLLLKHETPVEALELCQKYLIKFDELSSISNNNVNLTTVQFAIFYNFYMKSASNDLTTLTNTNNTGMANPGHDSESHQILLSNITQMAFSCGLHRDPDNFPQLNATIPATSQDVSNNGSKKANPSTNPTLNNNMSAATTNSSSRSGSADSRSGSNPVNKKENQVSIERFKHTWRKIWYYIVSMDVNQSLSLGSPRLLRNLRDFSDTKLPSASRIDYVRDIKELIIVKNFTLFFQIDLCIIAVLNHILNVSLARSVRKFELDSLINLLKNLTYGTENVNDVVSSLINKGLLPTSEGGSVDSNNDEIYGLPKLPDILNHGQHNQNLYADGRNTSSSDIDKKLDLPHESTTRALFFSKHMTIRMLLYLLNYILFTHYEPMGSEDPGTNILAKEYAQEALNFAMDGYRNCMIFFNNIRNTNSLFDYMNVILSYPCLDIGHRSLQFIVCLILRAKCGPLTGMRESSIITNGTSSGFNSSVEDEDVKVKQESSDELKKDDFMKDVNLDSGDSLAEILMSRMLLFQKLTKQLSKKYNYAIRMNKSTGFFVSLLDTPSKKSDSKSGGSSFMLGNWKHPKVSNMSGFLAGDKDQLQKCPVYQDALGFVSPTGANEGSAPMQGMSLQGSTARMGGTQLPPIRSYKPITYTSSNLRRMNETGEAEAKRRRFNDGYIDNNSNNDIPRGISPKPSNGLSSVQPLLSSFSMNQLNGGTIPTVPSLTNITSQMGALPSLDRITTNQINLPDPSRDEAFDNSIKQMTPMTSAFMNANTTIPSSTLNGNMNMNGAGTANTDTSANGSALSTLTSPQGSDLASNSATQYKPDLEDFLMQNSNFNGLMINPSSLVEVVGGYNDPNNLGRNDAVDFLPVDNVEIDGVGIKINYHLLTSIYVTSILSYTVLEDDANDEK

Sequence	PBM E-score
AGCCACTC	-0.151
GGCATAGA	-0.00684
GATGTTAC	0.0459
CGAACCAA	0.0309
AAAGTTCG	0.083
GGACTTAA	0.443
AAAATCAC	-0.0485
CCCGCGAG	0.179
AAGGTGAA	-0.0166
AGTCAAGA	-0.26
ATTTGCTA	-0.0549
AAAATTTT	0.212
AACCGTAG	-0.0665
GTAGAAAC	0.0346
CCTCAACA	-0.0823
CGCTCAAG	-0.136
TCCCAACA	-0.206
CGAAGCAA	-0.112
ACCCAGTC	-0.00985
CACACTGC	-0.0318
CAGTTCCA	-0.0865
AGTCCTAT	-0.0943
ATGTGCCA	-0.302
CCTATCCC	0.122

Sequence	PBM E-score
AATTACAG	0.0274
CTTAAAGC	0.12
ATCCTGAG	-0.182
CCACTGGA	-0.132
AACGTGAT	-0.272
CCATGGCG	0.102
CCGATTGA	0.181
AAATTTTA	-0.22
GCGCCACA	-0.19
AGACGCCC	0.136
CCAAAATC	-0.0233
CTTCACGC	0.0443
CACAGTGC	0.00378
CTCCCGAA	0.0966
ATCCACTA	-0.0975
AACTCAGA	-0.17
AAAATGCA	-0.131
CCTTTCCG	0.239
GCCTTTCC	0.112
GCATATCA	0.0762
GCGTTAAA	0.123
AAACCAAT	0.0157
GGAAACCC	0.226
AGCAGTAT	-0.202

Sequence	PBM E-score
GGGGAGAC	0.0358
AACGTATT	-0.0293
CAGCTAAA	-0.0463
CAACATGA	-0.0313
GATCCGCA	0.253
CCCGCATC	0.0799
CGAACGAC	0.0153
CCTGACAA	-0.227
AGGCTGTC	-0.089
TACGGCAA	0.108
CCAGGGTC	-0.126
CCATAGTC	-0.115
ACAATGGT	-0.238
GAATGGTC	0.0013
AAGCGATT	-0.016
ATTCCAGG	-0.131
AACCCCAA	0.0187
ACCTGTAC	-0.0444
CCCGTCCA	0.0596
AGACCTCG	0.0209
GATAAGTA	0.0954
CGAGATCA	0.0352
CCACTCCA	-0.188
CATTGCCA	-0.127

Sequence	PBM E-score
TCAAGCAA	-0.152
AGCCGACG	0.234
CTTCGGGA	0.277
CCGCGTGA	0.111
AGTACCTG	-0.151
CCATTCTA	-0.222
ACTTCGTG	-0.184
CGAAAATC	0.0345
TATCGTCA	-0.0513
ACGCGGCT	-0.00618
AGCTACAT	-0.123
GTAACCAA	0.0669
ACTTTCAA	0.0743
GATAAGAC	0.0477
GCCTGCGC	-0.0989
ACACCGGA	0.395
GACGTAAA	0.116
CAGGTGTA	-0.199
GCGCGGAA	0.28
GCTGCGTA	-0.364
GAAGGGCC	-0.156
GTCCAATA	0.0873
